Data from PubChem BioAssay (NCI).
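Following 48 hours of exposure in 96-well plates, responses at five concentrations were used to interpolate endpoints linearly. Here, GI50 denotes the concentration required for 50% inhibition of growth. TGI: total growth inhibition.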

System: NCI-H322M lung
Test: inhibition of tumour cell growth, NCI panel, 48 h

| Structure (SMILES) | GI50 [µM] | TGI [µM] |
| --- | --- | --- |
| COc1cc(/C=C/C(=O)c2cc(OC)c(OC)c(OC)c2)ccc1OCc1ccccc1 | 2.42 | 8.04 |
| N#C/C(=N\Nc1ccc(F)cc1)C(=O)Nc1cc(-c2ccccc2)nn1-c1ccccc1 | 2.79 | 12.9 |
| C/C(=C(/c1ccc(O)cc1)c1ccc(OCCN2CCCC2)cc1)c1ccc(Cl)cc1 | 4.16 | 16.1 |
